# Results as given in the supplement of paper PMC2702839.
# Where a name gives a salt, the structure may show the parent alone. The list shows a part of the results.
# Tested on: Schistosoma mansoni schistosomula
# Experiment: phenotypic hit in primary schistosomula screen (any phenotype vs DMSO control) (binary (1 = hit, 0 = no phenotype)); higher = active (phenotype induced)
# Settings: 1 µM; time (d): 7
row,SMILES,phenotypic hit
1,O=C(O)c1ccc(S(=O)(=O)N(Cl)Cl)cc1 [halazone],inactive: 0
2,COc1c(C)c2c(c(O)c1C/C=C(\C)CCC(=O)O)C(=O)OC2 [mycophenolic acid],inactive: 0
3,"CC(C)c1ccc2c(c1)CC[C@H]1[C@](C)(CN)CCC[C@]21C [18-aminoabieta-8,11,13-triene sulfate]",inactive: 0
4,CCN1CCCC(OC(=O)C(c2ccccc2)c2ccccc2)C1 (stereo not drawn) [piperidolate hydrochloride],inactive: 0
5,Nc1ccc(C(=O)O)cc1 [potassium p-aminobenzoate],inactive: 0
6,CCCCCC(=O)O[C@]1(C(C)=O)CC[C@H]2[C@@H]3CCC4=CC(=O)CC[C@]4(C)[C@H]3CC[C@@]21C [hydroxyprogesterone caproate],inactive: 0
7,NC[C@@H](O)c1ccc(O)c(O)c1 [L(-)-Norepinephrine bitartrate],inactive: 0
8,CC1(C)OC(=O)C[C@H](O)[C@]2(C)[C@H]3CC[C@@]4(C)[C@H](c5ccoc5)OC(=O)[C@H]5O[C@]54[C@]3(C)C(=O)C[C@@H]12 [deacetylnomilin],inactive: 0
9,O=C(O[C@@H]1Cc2c(O)cc(O)cc2O[C@@H]1c1ccc(O)c(O)c1)c1cc(O)c(O)c(O)c1 [epicatechin monogallate],inactive: 0
10,OC(c1cc(C(F)(F)F)nc2c(C(F)(F)F)cccc12)C1CCCCN1 (stereo not drawn) [mefloquine],inactive: 0
11,CNCCCC12CCC(c3ccccc31)c1ccccc12 [maprotiline hydrochloride],inactive: 0
12,CC1(C)O[C@@H]2C[C@H]3[C@@H]4CCC5=CC(=O)CC[C@]5(C)[C@@]4(F)[C@@H](O)C[C@]3(C)[C@]2(C(=O)CCl)O1 [halcinonide],inactive: 0
13,C[C@]12C=CC(=O)C=C1CC[C@H]1[C@@H]3C[C@@H](O)[C@](O)(C(=O)CO)[C@@]3(C)C[C@H](O)[C@@]12F [triamcinolone],inactive: 0
14,NC(N)=NCCC[C@H](NC(=O)[C@@H](N)Cc1ccc(O)cc1)C(=O)O [kyotorphin acetate],inactive: 0
15,Cc1cc(C)cc(OCC2CNC(=O)O2)c1 (stereo not drawn) [metaxalone],inactive: 0
16,"COc1ccc(C(=O)O)c(O)c1OC [2-hydroxy-3,4-dimethoxybenzoic acid]",inactive: 0
17,CCN(CC)CCOC(=O)c1ccc(N)cc1 [procaine hydrochloride],inactive: 0
18,CN=C(N)NCCCC(N)C(=O)O (stereo not drawn) [ng-methyl-l-arginine acetate],inactive: 0
19,CC(=O)O[C@@H]1CC2C(C)(C)C=CC(=O)[C@]2(C)C2CC[C@@]3(C)[C@H](c4ccoc4)OC(=O)C4OC43[C@@]21C (stereo partly drawn) [isogedunin],inactive: 0
20,"CC(=O)N[C@@H](CS)C(=O)O [L-Cysteine, N-Acetyl-]",inactive: 0
21,CC(=O)O[C@H]1C[C@@]2(C)[C@@H](C[C@@H](O)[C@H]3[C@@]4(C)CC[C@@H](O)[C@@H](C)[C@@H]4CC[C@@]32C)/C1=C(\CCC=C(C)C)C(=O)O [fusidic acid],inactive: 0
22,"COc1cccc(-c2cc(=O)c3cc(OC)ccc3o2)c1 [6,3'-dimethoxyflavone]",inactive: 0
23,COc1cc(OC)c2c(c1)O[C@H](c1cc(OC)c(OC)c(OC)c1)[C@H](OC(=O)c1cc(OC)c(OC)c(OC)c1)C2 [epigallocatechin octamethyl ether],inactive: 0

row,SMILES,phenotypic hit
1,O=c1cc(-c2ccccc2)oc2cc(O)c(O)c(O)c12 [baicalein],inactive: 0
2,Nc1ccc(S(=O)(=O)Nc2cnc3ccccc3n2)cc1 [sulfaquinoxaline sodium],inactive: 0
3,O=C(O)CN(CC(=O)O)Cc1cc2c(cc1O)Oc1cc(O)c(CN(CC(=O)O)CC(=O)O)cc1C21OC(=O)c2ccccc21 [calcein],inactive: 0
4,COc1ccc(C[C@H](N)C(=O)N[C@H]2[C@@H](O)[C@H](n3cnc4c(N(C)C)ncnc43)O[C@@H]2CO)cc1 [puromycin hydrochloride],inactive: 0
5,Cc1ccnc(NS(=O)(=O)c2ccc(N)cc2)n1 [sulfamerazine],inactive: 0
6,CC(=O)Oc1cc2c(c(C)c1OC(C)=O)CC=C1[C@@]2(C)CC[C@@]2(C)C3C[C@](C)(C(=O)O)CC[C@]3(C)CC[C@]12C (stereo partly drawn) [dihydrocelastryl diacetate],active: 1
7,CCCCNc1cc(C(=O)O)cc(S(N)(=O)=O)c1Oc1ccccc1 [bumetanide],inactive: 0
8,COc1c(C(C)C)oc2cc3oc(=O)ccc3cc12 [peucedanin],inactive: 0
9,N[C@H](C(=O)O)[C@@H]1CC(Cl)=NO1 [acivicin],inactive: 0
10,CC(=O)Oc1ccccc1C(=O)Oc1ccccc1C(=O)O [diplosalsalate],inactive: 0
11,COc1ccc2cc([C@H](C)CO)ccc2c1 [naproxol],inactive: 0
12,CC(=O)O[C@]1(C(C)=O)CC[C@H]2[C@@H]3C=C(Cl)C4=CC(=O)[C@@H]5C[C@@H]5[C@]4(C)[C@H]3CC[C@@]21C [cyproterone acetate],inactive: 0
13,N[C@@H]1CONC1=O [D-Cycloserine],inactive: 0
14,O=C(O)Cc1nn(Cc2ccc(Br)cc2F)c(=O)c2ccccc12 [statil],inactive: 0
15,O=C(O)/C=C/c1ccc(O)c(O)c1 [caffeic acid],inactive: 0
16,CC(=O)O[C@H]1CC[C@@]2(C)C(=CC(=O)[C@H]3[C@@H]4CC[C@H]([C@H](C)CCCC(C)C)[C@@]4(C)CC[C@@H]32)C1 [7-oxocholesteryl acetate],inactive: 0
17,CC1=C(/C=C/C(C)=C/C=C/C(C)=C/C=C/C=C(C)/C=C/C=C(C)/C=C/C2=C(C)C(=O)[C@@H](O)CC2(C)C)C(C)(C)C[C@H](O)C1=O [astaxanthin],inactive: 0
18,CC(=O)Oc1ccccc1C(=O)O [aspirin],inactive: 0
19,N=C(N)NS(=O)(=O)c1ccc(N)cc1 [sulfaguanidine],inactive: 0
20,COc1ccc2ccc(=O)oc2c1CC=C(C)C [osthol],inactive: 0
21,CC(=O)O[C@@H]1CC2C(C)(C)[C@H](O)C=C[C@]2(C)C2CC[C@@]3(C)[C@H](c4ccoc4)OC(=O)C4OC43[C@@]21C (stereo partly drawn) [gedunol],inactive: 0
22,CC(C)=CCC/C(C)=C/C=C/C(C)=C/C=C/C(C)=C/C=C/C=C(C)/C=C/C=C(C)/C=C/C=C(\C)CCC=C(C)C [lycopene],inactive: 0
23,CC1=C(/C=C/C(C)=C/C=C/C(C)=C/C(=O)O)C(C)(C)CCC1 [tretinon],inactive: 0

row,SMILES,phenotypic hit
1,NC[C@@H]1CC[C@@H](N)[C@@H](O[C@H]2[C@H](O)[C@@H](O[C@H]3O[C@H](CO)[C@@H](O)[C@H](N)[C@H]3O)[C@H](N)C[C@@H]2N)O1 [dibekacin],active: 1
2,CCC1(c2ccccc2)NC(=O)N(C)C1=O (stereo not drawn) [mephentoin],inactive: 0
3,N[C@@H](CCC(=O)N[C@@H](CS)C(=O)NCC(=O)O)C(=O)O [glutathione],inactive: 0
4,CC1=C(C(=O)O)N2C(=O)[C@@H](NC(=O)[C@H](N)C3=CCC=CC3)[C@H]2SC1 [cephradine],inactive: 0
5,COc1cc2c3cc1Oc1cc(ccc1O)C[C@@H]1c4c(cc(OC)c(O)c4Oc4ccc(cc4)C[C@@H]3N(C)CC2)CC[N+]1(C)C [tubocurarine chloride],inactive: 0
6,CC(=O)O[C@@H]1c2c(ccc3ccc(=O)oc23)OC(C)(C)[C@@H]1OC(=O)CC(C)C [dihydrosamidin],inactive: 0
7,C[C@]12CC[C@@H]3c4ccc(O)cc4CC[C@H]3[C@@H]1CC[C@@H]2O [estradiol],inactive: 0
8,CCN(CC)C(=O)c1cccc(C)c1 [deet],inactive: 0
9,CCCN(CCC)S(=O)(=O)c1ccc(C(=O)O)cc1 [probenecid],inactive: 0
10,C=C1CCC(OC(C)=O)/C(C)=C/C[C@@H]2[C@@H]1CC2(C)C (stereo partly drawn) [caryophyllenyl acetate],inactive: 0
11,COc1ccc(-c2coc3c(O)c(OC)ccc3c2=O)cc1 [retusin 7-methyl ether],inactive: 0
12,"C/C1=C\CC(C)(C)/C=C/CC2(C)OC2CC1 (stereo not drawn) [epoxy (1,11)humulene]",inactive: 0
13,NCCCCCCNS(=O)(=O)c1cccc2c(Cl)cccc12 [W-7 hydrochloride],inactive: 0
14,CN(C)CCOC(c1ccccc1)c1ccccc1 [Diphenhydramine hydrochloride],inactive: 0
15,CC(=O)[C@H]1CC[C@H]2[C@@H]3CCC4=CC(=O)CC[C@]4(C)[C@H]3CC[C@]12C [progesterone],inactive: 0
16,CC(=O)O[C@H]1C[C@@H](OC(C)=O)C(C)(C)[C@@H]2C[C@@H](OC(C)=O)[C@]3(C)[C@H](CC[C@@]4(C)[C@H](c5ccoc5)OC(=O)[C@H]5O[C@@]534)[C@@]12C [khivorin],inactive: 0
17,CN(C)CC/C=C1/c2ccccc2Sc2ccc(Cl)cc21 [Chlorprothixene hydrochloride],active: 1
18,NC(Cc1cc(I)c(Oc2cc(I)c(O)c(I)c2)c(I)c1)C(=O)O (stereo not drawn) [thyroxine],inactive: 0
19,Cc1cc(=O)oc2cc(O)c(O)cc12 [4-methylesculetin],inactive: 0
20,COc1cc2c(cc1O)C(Cc1ccc(O)cc1)N(C)CC2 (stereo not drawn) [methyl coclaurine],inactive: 0
21,"COc1cc(OC)cc(OC)c1 [1,3,5-trimethoxybenzene]",inactive: 0
22,CNCc1ccccc1 [n-methylbenzylamine hydrochloride],inactive: 0
